The record followed here is patent US20230287084A1 (35PHARMA, published 2023).

B1: P667 (hActRIIB - F58E, 39aa linker, IgG1 FcDL) (Fc fusion)
chain: ETRECIYYNANWELERTNQSGLERCEGEQDKRLHCYASWRNSSGTIELVKKGCWLDDENCYDRQECVATEENPQVYFCCCEGNFCNERFTHLPEAGGPEVTYEPPPTGGGGSGGGGSGGGGSGGGGSGGGGSGGGGSGGGGSGG[omitted - human IgG1 Fc and a few adjoining residues]
B2: P666 (hActRIIB - F58E, 19aa linker, IgG1 FcDL) (Fc fusion)
chain: ETRECIYYNANWELERTNQSGLERCEGEQDKRLHCYASWRNSSGTIELVKKGCWLDDENCYDRQECVATEENPQVYFCCCEGNFCNERFTHLPEAGGPEVTYEPPPTGGGGSGGGGSGGGGSGG[omitted - human IgG1 Fc and a few adjoining residues]
B3: P622 (hActRIIB - F58E, 14aa linker, IgG1 FcDL) (Fc fusion)
chain: ETRECIYYNANWELERTNQSGLERCEGEQDKRLHCYASWRNSSGTIELVKKGCWLDDENCYDRQECVATEENPQVYFCCCEGNFCNERFTHLPEAGGPEVTYEPPPTGGGGSGGGGSGG[omitted - human IgG1 Fc and a few adjoining residues]
B4: P687 (hActRIIB - F58D, 14aa linker, IgG1 FcDL) (Fc fusion)
chain: ETRECIYYNANWELERTNQSGLERCEGEQDKRLHCYASWRNSSGTIELVKKGCWLDDDNCYDRQECVATEENPQVYFCCCEGNFCNERFTHLPEAGGPEVTYEPPPTGGGGSGGGGSGG[omitted - human IgG1 Fc and a few adjoining residues]
B5: P122 (hActRIIB - Q29Y, 3aa linker, IgG1 FcEM) (Fc fusion)
chain: ETRECIYYNANWELERTNQSGLERCEGEYDKRLHCYASWRNSSGTIELVKKGCWLDDFNCYDRQECVATEENPQVYFCCCEGNFCNERFTHLPEAGGPEVTYEPPPTG[omitted - human IgG1 Fc and a few adjoining residues]
B6: P123 (hActRIIB - D30Q, 3aa linker, IgG1 FcEM) (Fc fusion)
chain: ETRECIYYNANWELERTNQSGLERCEGEQQKRLHCYASWRNSSGTIELVKKGCWLDDFNCYDRQECVATEENPQVYFCCCEGNFCNERFTHLPEAGGPEVTYEPPPTG[omitted - human IgG1 Fc and a few adjoining residues]
B7: P127 (hActRIIB - F77D, 3aa linker, IgG1 FcEM) (Fc fusion)
chain: ETRECIYYNANWELERTNQSGLERCEGEQDKRLHCYASWRNSSGTIELVKKGCWLDDFNCYDRQECVATEENPQVYDCCCEGNFCNERFTHLPEAGGPEVTYEPPPTG[omitted - human IgG1 Fc and a few adjoining residues]
B8: P125 (hActRIIB - S38R, 3aa linker, IgG1 FcEM) (Fc fusion)
chain: ETRECIYYNANWELERTNQSGLERCEGEQDKRLHCYARWRNSSGTIELVKKGCWLDDFNCYDRQECVATEENPQVYFCCCEGNFCNERFTHLPEAGGPEVTYEPPPTG[omitted - human IgG1 Fc and a few adjoining residues]
B9: P441 (hActRIIB - G27D + F58E, 3aa linker, IgG1 FcEM) (Fc fusion)
chain: ETRECIYYNANWELERTNQSGLERCEDEQDKRLHCYASWRNSSGTIELVKKGCWLDDENCYDRQECVATEENPQVYFCCCEGNFCNERFTHLPEAGGPEVTYEPPPTG[omitted - human IgG1 Fc and a few adjoining residues]
B10: P126 (hActRIIB - V75Q, 3aa linker, IgG1 FcEM) (Fc fusion)
chain: ETRECIYYNANWELERTNQSGLERCEGEQDKRLHCYASWRNSSGTIELVKKGCWLDDFNCYDRQECVATEENPQQYFCCCEGNFCNERFTHLPEAGGPEVTYEPPPTG[omitted - human IgG1 Fc and a few adjoining residues]
B11: P624 (hActRIIB - F58E, 3aa linker, IgG1 FcDL) (Fc fusion)
chain: ETRECIYYNANWELERTNQSGLERCEGEQDKRLHCYASWRNSSGTIELVKKGCWLDDENCYDRQECVATEENPQVYFCCCEGNFCNERFTHLPEAGGPEVTYEPPPTG[omitted - human IgG1 Fc and a few adjoining residues]

The target of one assay is T1, activin A (UniProt P08476 311-426).
T1 sequence (looked up): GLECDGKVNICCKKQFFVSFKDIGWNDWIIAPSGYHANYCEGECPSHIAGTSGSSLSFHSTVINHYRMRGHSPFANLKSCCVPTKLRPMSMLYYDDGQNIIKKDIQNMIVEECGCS
The assay can be described thus: cell-based or functional assay.
Molecule B1 registered an Avg IC50, activin A neutralization (HEK293 TGFβ-reporter) of 0.48 nM.

The molecule B2 showed an Avg IC50, activin A neutralization (HEK293 TGFβ-reporter) of 0.33 nM.

In turn, B3 displayed a % increase of potency relative to P624 of 295% and an Avg IC50, activin A neutralization (HEK293 TGFβ-reporter) of 0.43 nM.

In turn, B4 returned an Avg IC50, activin A neutralization (HEK293 TGFβ-reporter) of 2 nM.

Regarding B5, the Avg IC50, activin A neutralization (HEK293 TGFβ-reporter) amounted to 2.4 nM.

As for B6, the Avg IC50, activin A neutralization (HEK293 TGFβ-reporter) worked out at 5 nM.

In the case of B7, the Avg IC50, activin A neutralization (HEK293 TGFβ-reporter) is over 1000 nM.

For the molecule B8, the Avg IC50, activin A neutralization (HEK293 TGFβ-reporter) is over 1000 nM.

In the case of B9, the “Avg IC50, activin A neutralization (HEK293 TGFβ-reporter)” value was 0.67 nM.

Regarding B10, the Avg IC50, activin A neutralization (HEK293 TGFβ-reporter) is over 1000 nM.

In turn, B11 displayed an Avg IC50, activin A neutralization (HEK293 TGFβ-reporter) of 1.7 nM.

Another assay concerns the target T2, activin B (UniProt P09529 293-407).
T2 sequence (looked up): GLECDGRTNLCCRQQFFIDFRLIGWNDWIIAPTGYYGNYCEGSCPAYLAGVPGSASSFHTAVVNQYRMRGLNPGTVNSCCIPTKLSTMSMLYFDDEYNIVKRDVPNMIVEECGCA
The assay can be described thus: cell-based or functional assay.
With B1, the Avg IC50, activin B neutralization (HEK293 TGFβ-reporter) was found to be 1.7 nM.

B2 gave an Avg IC50, activin B neutralization (HEK293 TGFβ-reporter) of 1.1 nM.

As to B3, the % increase of potency relative to P624 was found to be 129% and the Avg IC50, activin B neutralization (HEK293 TGFβ-reporter) was determined as 1.2 nM.

The molecule B4 came in with an Avg IC50, activin B neutralization (HEK293 TGFβ-reporter) of 8.8 nM.

B5 gave an Avg IC50, activin B neutralization (HEK293 TGFβ-reporter) of 2.5 nM.

The molecule B6 registered an Avg IC50, activin B neutralization (HEK293 TGFβ-reporter) of 2.8 nM.

The molecule B7 came in with an Avg IC50, activin B neutralization (HEK293 TGFβ-reporter) of over 1000 nM.

Take B8: the Avg IC50, activin B neutralization (HEK293 TGFβ-reporter) is over 1000 nM.

In the case of B9, the “Avg IC50, activin B neutralization (HEK293 TGFβ-reporter)” value is 28 nM.

In turn, B10 displayed an Avg IC50, activin B neutralization (HEK293 TGFβ-reporter) of over 1000 nM.

Turning to B11, the Avg IC50, activin B neutralization (HEK293 TGFβ-reporter) is 2.7 nM.

The target in another assay is T3, GDF-8 (UniProt O14793 267-375).
T3 sequence (looked up): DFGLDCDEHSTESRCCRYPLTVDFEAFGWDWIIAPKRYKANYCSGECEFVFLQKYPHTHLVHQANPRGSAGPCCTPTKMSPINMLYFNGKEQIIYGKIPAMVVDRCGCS
Kind of assay: cell-based or functional assay.
B1 had an Avg IC50, GDF-8 neutralization (HEK293 TGFβ-reporter) of 0.47 nM.

Molecule B2 returned an Avg IC50, GDF-8 neutralization (HEK293 TGFβ-reporter) of 0.25 nM.

B3 registered an Avg IC50, GDF-8 neutralization (HEK293 TGFβ-reporter) of 0.29 nM.

In turn, B4 registered an Avg IC50, GDF-8 neutralization (HEK293 TGFβ-reporter) of 1.4 nM.

For B5, the Avg IC50, GDF-8 neutralization (HEK293 TGFβ-reporter) was 0.62 nM.

Regarding B6, the Avg IC50, GDF-8 neutralization (HEK293 TGFβ-reporter) was 1.1 nM.

With B7, the Avg IC50, GDF-8 neutralization (HEK293 TGFβ-reporter) was over 1000 nM.

Consider B8, for which the Avg IC50, GDF-8 neutralization (HEK293 TGFβ-reporter) was over 1000 nM.

Regarding B9, the “Avg IC50, GDF-8 neutralization (HEK293 TGFβ-reporter)” value amounted to 0.6 nM.

In turn, B10 yielded an Avg IC50, GDF-8 neutralization (HEK293 TGFβ-reporter) of 65 nM.

As to B11, the Avg IC50, GDF-8 neutralization (HEK293 TGFβ-reporter) was determined as 0.32 nM.

For another assay, the target named is T4, GDF-11 (UniProt O95390 299-407).
T4 sequence (looked up): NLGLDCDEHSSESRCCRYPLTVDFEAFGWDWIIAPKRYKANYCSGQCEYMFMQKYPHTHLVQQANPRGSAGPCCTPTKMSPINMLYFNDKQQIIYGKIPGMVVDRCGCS
Kind of assay: cell-based or functional assay.
B1 had an Avg IC50, GDF-11 neutralization (HEK293 TGFβ-reporter) of 0.38 nM.

In the case of B2, the Avg IC50, GDF-11 neutralization (HEK293 TGFβ-reporter) came out at 0.21 nM.

For the molecule B3, the Avg IC50, GDF-11 neutralization (HEK293 TGFβ-reporter) is 0.31 nM.

The molecule B4 registered an Avg IC50, GDF-11 neutralization (HEK293 TGFβ-reporter) of 0.85 nM.

The molecule B5 displayed an Avg IC50, GDF-11 neutralization (HEK293 TGFβ-reporter) of 0.71 nM.

Molecule B6 registered an Avg IC50, GDF-11 neutralization (HEK293 TGFβ-reporter) of 1.2 nM.

For the molecule B7, the Avg IC50, GDF-11 neutralization (HEK293 TGFβ-reporter) was over 1000 nM.

In turn, B8 displayed an Avg IC50, GDF-11 neutralization (HEK293 TGFβ-reporter) of over 1000 nM.

With B9, the “Avg IC50, GDF-11 neutralization (HEK293 TGFβ-reporter)” value was 0.73 nM.

Regarding B10, the Avg IC50, GDF-11 neutralization (HEK293 TGFβ-reporter) was 23 nM.

Consider B11, for which the Avg IC50, GDF-11 neutralization (HEK293 TGFβ-reporter) turned out to be 0.3 nM.

The target in a further assay is T5, BMP-9 (UniProt Q9UK05 320-429).
T5 sequence (looked up): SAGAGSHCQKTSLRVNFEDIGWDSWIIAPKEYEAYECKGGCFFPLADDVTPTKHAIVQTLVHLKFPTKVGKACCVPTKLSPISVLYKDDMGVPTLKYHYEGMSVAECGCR
Kind of assay: cell-based or functional assay.
B1 showed an Average IC50, BMP-9 neutralization (HepG2 BMP-reporter) of 498 nM.

B2 came in with an Average IC50, BMP-9 neutralization (HepG2 BMP-reporter) of 144 nM.

Take B3: the % increase of potency relative to P624 turned out to be 153% and the Average IC50, BMP-9 neutralization (HepG2 BMP-reporter) worked out at 373 nM.

Regarding B4, the Average IC50, BMP-9 neutralization (HepG2 BMP-reporter) was determined as 36 nM.

B5 registered an Average IC50, BMP-9 neutralization (HepG2 BMP-reporter) of 2.7 nM.

For the molecule B6, the Average IC50, BMP-9 neutralization (HepG2 BMP-reporter) was 8.1 nM.

As for B7, the Average IC50, BMP-9 neutralization (HepG2 BMP-reporter) is over 1000 nM.

As to B8, the Average IC50, BMP-9 neutralization (HepG2 BMP-reporter) is over 1000 nM.

For B9, the “Average IC50, BMP-9 neutralization (HepG2 BMP-reporter)” value was determined as 362 nM.

On to B10, for which the Average IC50, BMP-9 neutralization (HepG2 BMP-reporter) was over 1000 nM.

In turn, B11 displayed an Average IC50, BMP-9 neutralization (HepG2 BMP-reporter) of 951 nM.

The next assay has as its target T6, BMP-10 (UniProt O95393 317-424).
T6 sequence (looked up): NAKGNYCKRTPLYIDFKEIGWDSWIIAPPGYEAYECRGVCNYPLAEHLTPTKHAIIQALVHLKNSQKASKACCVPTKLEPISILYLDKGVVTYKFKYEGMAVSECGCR
Kind of assay: cell-based or functional assay.
In turn, B1 yielded an Average IC50, BMP-10 neutralization (HepG2 BMP-reporter) of 1.4 nM.

For the molecule B2, the Average IC50, BMP-10 neutralization (HepG2 BMP-reporter) was 0.88 nM.

The molecule B3 had a % increase of potency relative to P624 of 77% and an Average IC50, BMP-10 neutralization (HepG2 BMP-reporter) of 0.98 nM.

In turn, B4 returned an Average IC50, BMP-10 neutralization (HepG2 BMP-reporter) of 2.4 nM.

With B5, the Average IC50, BMP-10 neutralization (HepG2 BMP-reporter) stood at 2.7 nM.

B6 returned an Average IC50, BMP-10 neutralization (HepG2 BMP-reporter) of 3.9 nM.

As for B7, the Average IC50, BMP-10 neutralization (HepG2 BMP-reporter) was over 1000 nM.

In the case of B8, the Average IC50, BMP-10 neutralization (HepG2 BMP-reporter) is over 1000 nM.

With B9, the “Average IC50, BMP-10 neutralization (HepG2 BMP-reporter)” value was found to be 1 nM.

The molecule B10 registered an Average IC50, BMP-10 neutralization (HepG2 BMP-reporter) of over 1000 nM.

On to B11, for which the Average IC50, BMP-10 neutralization (HepG2 BMP-reporter) was determined as 1.7 nM.
